The campaign covered roughly 48,000 compounds. About 120 (0.25%) were called active. Inconclusive results (about 4%) are left out. The call rests on the fitted dose curve; in most records, active means well fitted activation curve with a large enough effect; inconclusive means small, poorly fitted or top-dose-only effect, or another doubt; inactive means no such curve, though single readings can be large or run the other way. Some of the results follow.
test: Primary qHTS for Identification of Small Molecule Activators of Huntingtin-Antisense Promoter Activity; conditions: HEK293 HTT-AS promoter firefly luciferase reporter, 24 h; series mostly up to 57.5 µM; activity change, positive = activation: at the top concentration; further: nearly all actives have a fitted effect of over 55% in size
How it was run: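 HEK293 luciferase promoter-reporter cells (2,500/well) plated 24 h, then compounds added at up to 57.5 uM final for 24 h at 37 °C. Firefly luminescence by Dual-Glo, normalized to vehicle (0%) and zero RLU (-100%).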

Activity change, positive = activation, inactive:
Cc1ccc(NC(=O)N2CCC(CN3CCC(C)CC3)CC2)cc1F 14.4%
COc1ccc(-c2cc(C(F)(F)F)nc(SCC(=O)NCCc3ccc(OC)c(OC)c3)n2)cc1 -7.19%
CCCc1cc(=O)n2[nH]c(-c3ccc(C)cc3)nc2n1 10.4%
Cc1ccc(NC(=O)C2CCCN(c3nnc(-n4c(C)ccc4C)s3)C2)cc1Cl (stereo unspecified) 2.57%
COc1cccc(CNC(=O)C(NS(=O)(=O)c2ccc3nc(C)sc3c2)C(C)C)c1 (stereo unspecified) -10.5%
Cc1ccc(C(CC(=O)Nc2cc(C)cc(C)c2)N2Cc3ccccc3C2=O)cc1 (stereo unspecified) -45.8%
Cc1cccc(NC(=O)CSc2nnc(C)c(=O)[nH]2)c1 -10.4%
CCS(=O)(=O)NCC(c1ccco1)N1CCN(c2ccc(OC)cc2)CC1 (stereo unspecified) -12.9%
Cc1ccccc1CN1c2ccccc2-c2nc(SCC(=O)NCCc3ccccc3)ncc2S1(=O)=O 16.3%
CCN(CC)c1ccc(-n2nc3cc(C)c(NC(=O)c4ccccc4F)cc3n2)cc1 13.2% [at 11.5 µM, percent change from vehicle, -100% = no light]
COc1ccc(S(=O)(=O)N(C)Cc2nc(-c3cccc(C)c3)no2)cc1 -25.5%
O=C(CSc1nc2ccsc2c(=O)n1Cc1ccccc1F)NCc1ccccc1 -26.8%
CCc1ccc(NC(=O)CN2C(=O)C(c3ccccc3)=NC23CCCCCC3)cc1 -40.9%
CCc1ccc(NC(=O)N(Cc2ccc(C)cc2)Cc2cccn2-c2nnc(N3CCCC3=O)s2)cc1 -2.66%
O=C(Nc1cccc(C(F)(F)F)c1)C1CCCN(S(=O)(=O)c2cccc3nsnc23)C1 (stereo unspecified) -39.2%
Cc1ccc2c(CC(=O)N3CCN(c4cccc(Cl)c4)CC3)coc2c1 -7.78%
CCCCNc1ccc(-c2nc(-c3ccccc3)no2)cc1[N+](=O)[O-] 16.4%
CSc1ncc(Cl)c(C(=O)NCc2ccc(C)cc2)n1 6.17%
O=S(=O)(Nc1ccc(F)c(C(F)(F)F)c1)c1ccc(N2CCCCS2(=O)=O)cc1 -63.2%
COc1ccc(OC)c(CNS(=O)(=O)c2c(C(=O)N3CCC(C)CC3)c(C)n(C)c2C)c1 -5.82%
Cc1cc(C)cc(NC(=O)Cn2nnc(C(=O)NCCc3ccccc3)c2N)c1 -19%
CCOc1ccc(C(=O)NCCc2sc(-c3ccc(C)cc3)nc2C)cc1 -2.94%
COc1cc(Nc2nc(SCc3ccccc3F)nc3ccccc23)cc(OC)c1 -32.3%
CCOc1ccccc1NC(=O)CSc1c(C)cnc2c1c(=O)n(C)c(=O)n2C -14.7%
Cc1ccc(CCNC(=O)c2ccc(CS(=O)(=O)c3ccc(Br)cc3)o2)cc1 -13.2%
Cc1cccc(NC(c2cccc(F)c2)c2ccc3ccc(C)nc3c2O)n1 (stereo unspecified) -14.1%
